{"source": "paper PMC6212790", "note": "This is one part of the list. At the low end of the ranking the order means little.", "data": [{"target": "T1, GST-Rok (full length) (UniProt O34857)", "T1 sequence": "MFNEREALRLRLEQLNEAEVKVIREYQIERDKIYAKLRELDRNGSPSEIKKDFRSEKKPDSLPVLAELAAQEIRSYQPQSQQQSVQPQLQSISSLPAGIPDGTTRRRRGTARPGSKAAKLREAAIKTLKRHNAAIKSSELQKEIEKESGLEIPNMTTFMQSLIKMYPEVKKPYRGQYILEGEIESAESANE", "experiment": "protein binding microarray;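 note: rank score from −0.5 (least bound) to 0.5 (best bound)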", "settings": "Rok is a gene silencer of Bacillus subtilis; high values mean tight binding; most listed sequences are background and not binding sites; double strand, one strand shown", "units": {"binding signal": "E-score"}, "values": [{"sequence": "AGCATGGG", "binding signal": -0.198}, {"sequence": "CAGAGGAG", "binding signal": -0.287}, {"sequence": "AATGGGAT", "binding signal": 0.149}, {"sequence": "CAGGAGAG", "binding signal": -0.125}, {"sequence": "AAACTAAG", "binding signal": 0.345}, {"sequence": "GTGGCATA", "binding signal": -0.0853}, {"sequence": "AACTGAGA", "binding signal": -0.0736}, {"sequence": "ATCAAGCA", "binding signal": 0.199}, {"sequence": "GTCAAGGA", "binding signal": -0.181}, {"sequence": "CCGGTGGA", "binding signal": -0.31}, {"sequence": "CCTTCTAA", "binding signal": -0.0239}, {"sequence": "GAACGGAA", "binding signal": -0.217}, {"sequence": "CTAACCAC", "binding signal": -0.116}, {"sequence": "CACATTTA", "binding signal": 0.164}, {"sequence": "CAGACCTA", "binding signal": 0.0139}, {"sequence": "GACTACAA", "binding signal": 0.12}, {"sequence": "ATTTTTGC", "binding signal": 0.0142}, {"sequence": "GGGAGACC", "binding signal": -0.404}, {"sequence": "GGAGGCGA", "binding signal": -0.198}, {"sequence": "GCAAGGCC", "binding signal": -0.372}, {"sequence": "GGATATCA", "binding signal": -0.0323}, {"sequence": "CCGCGGCG", "binding signal": -0.19}, {"sequence": "CAGGTGCC", "binding signal": -0.304}, {"sequence": "AGGATGAT", "binding signal": -0.0933}, {"sequence": "AGTTGATC", "binding signal": 0.0409}, {"sequence": "AGTTAACA", "binding signal": 0.15}, {"sequence": "CGCCTATC", "binding signal": -0.0578}, {"sequence": "CGTAGGCA", "binding signal": -0.0851}, {"sequence": "CGTGATTC", "binding signal": 0.0837}, {"sequence": "AGTTGCAC", "binding signal": 0.0981}, {"sequence": "GGAATCCA", "binding signal": -0.0137}, {"sequence": "AGTCTCGC", "binding signal": -0.151}, {"sequence": "CATGCGTC", "binding signal": -0.075}, {"sequence": "AGATCTTC", "binding signal": -0.0496}, {"sequence": "AGGGGAGA", "binding signal": -0.312}, {"sequence": "AGCTTAGA", "binding signal": -0.0759}, {"sequence": "CAACGATA", "binding signal": 0.242}, {"sequence": "AACGGAGT", "binding signal": -0.129}, {"sequence": "AAGCTTTC", "binding signal": 0.0174}, {"sequence": "AGTTTTAC", "binding signal": 0.301}, {"sequence": "TATATTCA", "binding signal": 0.3}, {"sequence": "GAGGGCAA", "binding signal": -0.298}, {"sequence": "CGCTCCCC", "binding signal": -0.363}, {"sequence": "GGTCTACA", "binding signal": 0.0329}, {"sequence": "CTCTGACA", "binding signal": -0.196}, {"sequence": "ATGCTCCC", "binding signal": -0.196}, {"sequence": "CGTCCCAA", "binding signal": -0.371}, {"sequence": "GCCCCATA", "binding signal": -0.0377}, {"sequence": "TACGCAAA", "binding signal": 0.221}, {"sequence": "CAGAGCAC", "binding signal": -0.206}, {"sequence": "CGACCACG", "binding signal": -0.236}, {"sequence": "ACCTCTAA", "binding signal": -0.122}, {"sequence": "TCGGGCCA", "binding signal": -0.2}, {"sequence": "ATCACAGA", "binding signal": 0.0148}, {"sequence": "ACTACGTA", "binding signal": 0.246}, {"sequence": "ATTCGATA", "binding signal": 0.226}, {"sequence": "ACGATAAT", "binding signal": 0.153}, {"sequence": "AGTAAATC", "binding signal": 0.262}, {"sequence": "ACAGACAC", "binding signal": 0.0119}, {"sequence": "CGCTCGTC", "binding signal": -0.261}, {"sequence": "AACCGGAG", "binding signal": -0.133}, {"sequence": "CCTGTTAA", "binding signal": -0.1}, {"sequence": "CGAGCGCC", "binding signal": -0.405}, {"sequence": "CATGAGAA", "binding signal": 0.118}, {"sequence": "GTTGATAA", "binding signal": 0.176}, {"sequence": "ATTTATTA", "binding signal": 0.312}, {"sequence": "CACAAGAG", "binding signal": -0.0957}, {"sequence": "ATCTTGCC", "binding signal": -0.0891}, {"sequence": "GAATGCCC", "binding signal": -0.242}, {"sequence": "ACCCCAGA", "binding signal": -0.334}, {"sequence": "TCGATCCA", "binding signal": 0.00754}, {"sequence": "ATGACTAA", "binding signal": 0.248}, {"sequence": "AGTAAAAT", "binding signal": 0.311}, {"sequence": "GGTGAAAC", "binding signal": -0.124}, {"sequence": "CCCCTAAG", "binding signal": -0.324}, {"sequence": "CCCAGAAG", "binding signal": -0.223}, {"sequence": "GCGATCAC", "binding signal": -0.0328}, {"sequence": "GTACACTA", "binding signal": 0.23}, {"sequence": "ACCTTCAG", "binding signal": -0.119}, {"sequence": "TCCACGGA", "binding signal": -0.157}, {"sequence": "CAACCTGA", "binding signal": -0.0565}, {"sequence": "ACTTTATG", "binding signal": 0.0133}, {"sequence": "AATTCCGG", "binding signal": 0.0263}, {"sequence": "CTCTCTGA", "binding signal": -0.243}, {"sequence": "ACCGGGCG", "binding signal": -0.248}, {"sequence": "TGGCATAA", "binding signal": -0.09}]}]}
